Structures are written as SMILES. Hit rate of the full screen: of about 310,000 compounds, about 2,200 (0.71%) showed an effect of 50% or more. Effects have a minus sign here. This is one part of the list.

The target in the assay is human ether-à-go-go-related gene (hERG) potassium channel (human, UniProt Q12809). In words: primary screen, population patch clamp on CHO cells stably expressing hERG.
Chain of human ether-à-go-go-related gene (hERG) potassium channel (Q12809 whole entry, looked up): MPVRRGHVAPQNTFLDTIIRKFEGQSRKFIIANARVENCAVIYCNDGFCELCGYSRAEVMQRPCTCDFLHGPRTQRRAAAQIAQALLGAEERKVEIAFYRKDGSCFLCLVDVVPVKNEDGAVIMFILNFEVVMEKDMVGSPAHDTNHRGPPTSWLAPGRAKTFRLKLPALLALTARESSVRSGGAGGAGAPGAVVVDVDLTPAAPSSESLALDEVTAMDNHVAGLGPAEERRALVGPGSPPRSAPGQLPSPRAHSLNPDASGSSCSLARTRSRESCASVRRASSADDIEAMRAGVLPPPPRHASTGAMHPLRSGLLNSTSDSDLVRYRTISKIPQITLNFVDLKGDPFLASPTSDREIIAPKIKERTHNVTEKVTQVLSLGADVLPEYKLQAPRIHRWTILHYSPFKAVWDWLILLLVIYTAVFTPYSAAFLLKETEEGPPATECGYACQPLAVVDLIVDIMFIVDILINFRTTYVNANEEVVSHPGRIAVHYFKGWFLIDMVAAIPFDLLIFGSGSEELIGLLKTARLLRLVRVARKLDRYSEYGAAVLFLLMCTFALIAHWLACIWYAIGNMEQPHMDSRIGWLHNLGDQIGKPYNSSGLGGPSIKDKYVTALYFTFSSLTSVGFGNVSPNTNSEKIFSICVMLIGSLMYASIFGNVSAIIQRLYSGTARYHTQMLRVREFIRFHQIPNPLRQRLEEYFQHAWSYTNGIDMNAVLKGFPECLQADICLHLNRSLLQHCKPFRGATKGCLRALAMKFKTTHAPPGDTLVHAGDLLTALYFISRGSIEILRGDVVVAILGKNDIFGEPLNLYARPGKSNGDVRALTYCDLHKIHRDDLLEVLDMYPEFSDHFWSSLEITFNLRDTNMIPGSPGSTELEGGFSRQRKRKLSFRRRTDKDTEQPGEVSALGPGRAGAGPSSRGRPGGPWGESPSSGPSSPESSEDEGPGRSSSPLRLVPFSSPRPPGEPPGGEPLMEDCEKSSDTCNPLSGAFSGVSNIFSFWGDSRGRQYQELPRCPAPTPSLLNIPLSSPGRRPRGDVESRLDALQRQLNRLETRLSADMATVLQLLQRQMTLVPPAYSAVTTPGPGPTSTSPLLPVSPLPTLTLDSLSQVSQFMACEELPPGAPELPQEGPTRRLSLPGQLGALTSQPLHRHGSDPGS
`COc1ccc(C2(C(=O)NCCCN3CCOCC3)CCOCC2)cc1.Cl`: the “hERG current change (%, negative = inhibition) at 1uM” value was found to be 9.62%.
Next, `Cn1c(SCc2nnc3n2CCCCC3)nc2ccccc21`: 9.34%; `CC(C)(C)c1cc(-c2n[nH]c(=S)n2-c2ccc(Cl)cc2)n[nH]1`: 12.5%.
Next, `CCC(Sc1nc2ccsc2c(=O)n1-c1ccc(Cl)c(C)c1)C(=O)NCc1ccco1` (stereo not shown): 1.88%; `CCOC(=O)c1oc2c(C)c(O)ccc2c(=O)c1-c1nncn1-c1ccccc1`: 7.41%; `CC1CN(C(=O)Cc2ccc(-c3ccccc3)cc2)CC(C)O1` (stereo not shown): 6.77%.
Regarding `CCOc1ccc(NC(=O)CN(C)C(=O)c2c(-c3ccccc3)noc2C)cc1OCC`, the “hERG current change (%, negative = inhibition) at 1uM” value is 1.1%.
With `CCc1ccc(NC(=O)C(=O)NCCN2CCN(Cc3ccc([N+](=O)[O-])cc3)CC2)cc1`, the “hERG current change (%, negative = inhibition) at 1uM” value is on record as -67.4%.
Take `COc1cccc(-n2c(C)nnc2SCC#N)c1`: the “hERG current change (%, negative = inhibition) at 1uM” value was -7.48%.
In the case of `O=C(NCc1cccc(Cl)c1)C1=CC=CN2CCS(=O)(=O)N=C12`, the “hERG current change (%, negative = inhibition) at 1uM” value stood at 11.8%.
Next, `O=C1N(CN2CCN(Cc3ccccc3)CC2)c2ccccc2C12OCCCO2`: 6.97%; `CNC(=O)c1sc(-c2ccccn2)nc1C`: 3.3%; `CC1=C(C)CC(C(=O)Nc2cccc(Cl)c2)C(C(=O)O)C1` (stereo not shown): 5.17%.
As for `C/C(=N\NC(=O)COc1c(C)cccc1C)c1cccs1`, the figure is 8.57%; as for `CCCCC1CCC(C(=O)N(CCOC)c2c(N)n(CC(C)C)c(=O)[nH]c2=O)CC1` (stereo not shown), 15%.
As for `CCCNC(=O)N1[C@H]2CC[C@@H]1C(C(=O)OC)=C(c1cccc(OC)c1OC)C2`, the figure is 17.9%; as for `COc1ccc(N(Cc2ccco2)C(=O)c2ccccc2F)cc1OC`, 6.64%.
Take `NNC(=O)c1ccc(Cn2cc(Cl)cn2)cc1`: the “hERG current change (%, negative = inhibition) at 1uM” value was -3.62%.
As to `COC(=O)N1CCN(c2ccc(C)cc2)C(C)C1` (stereo not shown), the “hERG current change (%, negative = inhibition) at 1uM” value was 10.3%.
As for `COc1ccc(C(=O)CC(=O)C(=O)Nc2ccc([N+](=O)[O-])cc2C)cc1`, the figure is 12.6%.
As for `Cc1nnc(SCC(=O)Nc2ccc(Cl)cn2)n1Cc1ccccc1`, the figure is 14.4%.
As for `CCCCOc1ccc(CSCCN)cc1Cl.Cl`, the figure is 8.85%.
For the compound `Cc1cc2ncn(C(=O)c3c(-c4ccccc4Cl)noc3C)c2cc1C`, the “hERG current change (%, negative = inhibition) at 1uM” value worked out at 9.85%.
As for `CC(=O)c1sc(C(C)(C)C)cc1NC(=O)c1ccccc1C(=O)O`, the figure is 14.9%.
For the compound `COc1cc2c3c(c1)-c1c(sn(-c4cc(OC)ccc4OC)c1=S)C(C)(C)N3C(=O)C2=O`, the “hERG current change (%, negative = inhibition) at 1uM” value was 6.02%.
On to `O=C(NC12CC3CC(CC(C3)C1)C2)C1CCCN1C(=O)Nc1ccccc1` (stereo not shown), for which the “hERG current change (%, negative = inhibition) at 1uM” value was determined as 8.5%.
`CC12CCC(C(=O)NCCCN3CCOCC3)(C(Br)C1=O)C2(C)C` (stereo not shown): the “hERG current change (%, negative = inhibition) at 1uM” value came out at 12.8%.
As for `CCN(Cc1ccccc1)S(=O)(=O)c1ccc(C(=O)N(CCCN(C)C)c2nc3cc4c(cc3s2)OCO4)cc1.Cl`, the “hERG current change (%, negative = inhibition) at 1uM” value is recorded as -2.41%.
`Cc1ccc(S(=O)(=O)NCCCNS(C)(=O)=O)cc1`: the “hERG current change (%, negative = inhibition) at 1uM” value was found to be 2.21%.
Next, `C=CCNc1nnc(Cc2ccc(C(C)C)cc2)c(=O)[nH]1`: 10.3%; `CCCCCCc1ccc(-c2ncc(N)cn2)cc1`: -5.95%; `Cc1ccccc1-n1c(O)c(/C=N/c2nccs2)c(=O)[nH]c1=O` [24811058]: 13.2%.
Next, `Cc1cc(SCC(=O)c2cccs2)n2nc(C)c(-c3ccc(Cl)cc3)c2n1`: 5.64%; `COc1ncc(C2=CC(=O)CC(C)(C)C2)cn1`: -0.232%.
As for `C[N+]1(C)CC[C@H](OC(=O)[C@@](O)(c2ccccc2)C2CCCC2)C1.[Br-]`, the figure is 6.96%; as for `Cc1cnc(C(=O)Nc2ccccc2-c2ccc(C)o2)cn1`, 7.54%; as for `CCC(C)NC(=O)C1CCN(CCCc2ccccc2)CC1.O=C(O)C(=O)O` (stereo not shown), 8.5%.
Take `COc1ccc(Cc2noc(CN(C)Cc3ccc(-n4cccn4)cc3)n2)cc1OC`: the “hERG current change (%, negative = inhibition) at 1uM” value is -0.946%.
Next, `CCC1CCC/C1=N\NC(=O)c1cc(C)[nH]n1` (stereo not shown): 7.3%; `CC(=O)c1cccc(NC(=O)C(C)OC(=O)Cc2c[nH]c3ccccc23)c1` (stereo not shown): 8.98%; `S=C(N/N=C/c1ccccc1)N1CCOCC1`: 14.7%.
Turning to `O=C(Nc1ccsc1C(=O)N1CCCCCC1)c1ccccc1`, the “hERG current change (%, negative = inhibition) at 1uM” value is given as 2.86%.
As for `CC(C)CNC(=S)N1CCC(NC(=O)C23CC4CC(CC(C4)C2)C3)CC1`, the figure is 3.51%.
As for `COc1ccc(/C=C2\SC(=S)N(NC(=O)c3csc4c3CCCC4)C2=O)cc1`, the figure is 5.24%.
With `CC(NC(=S)N1CCOCC1)c1ccccc1` (stereo not shown), the “hERG current change (%, negative = inhibition) at 1uM” value was 7.09%.
Next, `Cc1ccc(NC(=O)c2ccco2)cc1C`: -8.52%.
